Measured values as given in PubChem BioAssay AID1508623 (National Center for Advancing Translational Sciences (NCATS), 2021).
Hit rate of the full screen: of about 48,000 compounds, about 450 (0.94%) were called active. Inconclusive results (about 19%) are left out. Calls come from the whole dose curve; as a rule, active = well fitted inhibition curve with a large enough effect; inconclusive = small, poorly fitted or top-dose-only effect; inactive = no such curve, though single readings can be large or run the other way. This is one part of the list.

Assay: Primary qHTS for Identification of Small Molecule Inhibitors of Huntingtin Promoter Activity; note: nearly all actives have a fitted effect of over 50% in size
Conditions: HEK293 HTT promoter firefly luciferase reporter (activity 0% = vehicle and -100% = no light), 24 h; series mostly up to 57.5 µM; activity change, negative = inhibition: at the top concentration
In short: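 Quantitative HTS used concentration series of up to 57.5 uM final on HEK293 luciferase reporter cells, 24 h at 37 degrees C. Readout was Dual-Glo firefly luminescence.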

| Structure (SMILES) | activity change, negative = inhibition |
| --- | --- |
| COc1ccc(CNC(=O)CCCN2C(=O)CSc3c2c(C)nn3-c2ccccc2)c(OC)c1 | inactive: -23.1% |
| COc1ccc(Cl)cc1NC(=O)CCS(=O)(=O)c1cccc2nonc12 | inactive: -16.1% |
| Cc1ccc(NC(=O)C(=O)NCC(c2cccnc2)N2CCOCC2)cc1Cl (configuration not stated) | inactive: -30.8% |
| CCc1ccc(NC(=O)Cn2ccn(Cc3ccccc3OC)c(=O)c2=O)cc1 | inactive: -30.9% |
| Cc1ccc(-n2nc(C)c3c(C)cc(=O)n(CC(=O)N4CCCc5ccccc54)c32)cc1 | inactive: 0% |
| CCn1cc(S(=O)(=O)c2cccc(Cl)c2)c(=O)c2cc(F)c(N3CCC(C)CC3)cc21 | inactive: -10.4% |
| COc1cccc(-c2ccc3c(N)c(C(=O)c4ccc(Br)cc4)sc3n2)c1 | inactive: -25.5% |
| O=C(Cc1ccc(Cl)cc1)Nc1nnc2n1CCS2 | inactive: 2.88% |
| COc1ccc(C)cc1NC(=O)CCc1c(C)nn(-c2ccc(N3CCOCC3)nn2)c1C | inactive: -15.5% |
| O=C(COCc1cc(-c2cccs2)on1)NCc1ccc(Cl)cc1 | inactive: -29.1% |
| COc1cccc(CNC(=O)Cc2csc3ccccc23)c1OC | inactive: 16.4% |
| Cc1ccc(C2=Nc3ccc(Cl)cc3OC2)cc1 | inactive: 17.8% |
| COc1ccc(NC(=O)C(=O)NCC2(c3ccc(OC)c(OC)c3)CCCC2)cc1 | inactive: -19.8% |
| COc1ccc(NC(=O)CCCSc2nc(-c3ccco3)cc(C(F)(F)F)n2)c(OC)c1 | inactive: -25.8% |
| CCOc1ccc(N(CC)C(=O)C2CCN(S(=O)(=O)c3cccc4nonc34)CC2)cc1 | inactive: 2.74% |
| COc1cc(NC(=O)Cn2nnc(-c3ccc(C(F)(F)F)cc3)n2)c(C(=O)O)cc1OC | inactive: -2.27% |
| COc1ccc(CCC(=O)NC2CC(=O)N(c3cccc(F)c3)C2)cc1 (configuration not stated) | inactive: 6.95% |
| CCC(=O)n1nc(-c2cccnc2)nc1NCc1ccc(F)cc1 | inactive: -15.5% |
| COc1ccc(NC(=O)c2c(NC(=O)COc3ccccc3)sc3c2CCC(C)C3)cc1 (configuration not stated) | inactive: 23% |
| O=C(NCCC1=CCCCC1)c1ccc2c(=O)n3nc(Nc4ccccc4)sc3nc2c1 | inactive: -15.2% |
| Cc1ccc(NC(=O)CSc2nnc3[nH]c(=O)cc(-c4ccccc4)n23)cc1Cl | inactive: 55.4% |

| Structure (SMILES) | activity change, negative = inhibition |
| --- | --- |
| COCCCNC(=O)c1cn(CCOC)c(=O)c2c1c1ccccc1n2C | inactive: -14.8% |
| Cc1ccccc1CNC(=O)CN1C(=O)CSc2ccc(S(=O)(=O)N(C)C)cc21 | inactive: -10.8% |
| Cc1ccc(CSc2oc(-c3cccs3)nc2S(=O)(=O)c2ccccc2)cc1 | inactive: -13.4% |
| COc1ccccc1N1CCN(c2ncc3c(n2)CCN(Cc2ccccc2F)C3)CC1 | inactive: -10.9% |
| COc1ccc(CCNC(=O)Cc2c(C)c3c(cc(C)c4c(C)c(C)oc43)oc2=O)cc1 | inactive: 0.593% |
| C#C[C@]1(O)CC[C@H]2[C@@H]3[C@H](C)CC4=C(CCC(=O)C4)[C@H]3CC[C@@]21C | inactive: 0.185% |
| CCOC(=O)N1CCc2c(sc3c2c(=O)n(Cc2ccccc2)c(=O)n3Cc2ccccc2Cl)C1 | inactive: -8.23% |
| Cc1ccc2ncc(C(=O)N3CCN(c4ccccc4F)CC3)c(=O)n2c1 | inactive: -11.9% |
| COc1cccc(NC(=O)C2CCN(c3nnc(C)c4c(C)n(-c5ccccc5)nc34)CC2)c1 | inactive: -27.7% |
| CCc1ccc(OCC(=O)N(Cc2ccc(C)o2)C2CCS(=O)(=O)C2)cc1 (configuration not stated) | inactive: -5.49% |
| Cc1c(NC(=O)c2cc(=O)c3ccccc3o2)c(=O)n(-c2ccccc2)n1C | inactive: -6.36% |
| Cc1coc2c(C)c3oc(=O)c(CC(=O)NCCc4ccc(Cl)cc4)c(C)c3cc12 | inactive: -7.58% |
| C=CCc1c(C)nc2nc(SCC(=O)Nc3ccc(C)c(C)c3)nn2c1C | inactive: -10.8% |
| O=C(COc1ccccc1F)Nc1nnc(SCc2cc(=O)c3ccccc3[nH]2)s1 | inactive: -21.6% |
| Cc1cccc(CSc2nc(-c3cccs3)ccc2C#N)c1 | inactive: -29.5% |
| OC[C@@H](O)[C@@H](O)[C@H](O)[C@@H](O)CO | inactive: -11.9% |
| COc1cccc(N2CCN(C(=O)c3cccn3-c3nnc(N4CCCC4)s3)CC2)c1 | inactive: -16.5% |
| O=C(O)COc1nn(Cc2ccccc2)c2ccccc12 | inactive: -4.88% |
| COc1ccc(CCN2C(=O)c3oc4cc(C)cc(C)c4c(=O)c3C2c2ccccc2F)cc1OC (configuration not stated) | inactive: -13.2% |
| COc1ccc(S(=O)(=O)Nc2ccc(-c3cn4ccsc4n3)cc2)cc1C | inactive: -10% |
| COc1cccc(-c2nnc(SCC(=O)NC3CCCCC3)o2)c1 | inactive: -18.9% |

| Structure (SMILES) | activity change, negative = inhibition |
| --- | --- |
| Cc1ccc(NC(=O)c2ccc(CN3C(=O)CCn4nc(C)cc43)cc2)c(Cl)c1 | inactive: -7.55% |
| Cc1cccc(NC(=O)Cn2c(=O)ccc3cc(S(=O)(=O)N4CCCC4)ccc32)c1C | inactive: -12.7% |
| CC(=O)c1ccc(NC(=O)C2CCC(CNS(=O)(=O)c3cccs3)CC2)cc1 (configuration not stated) | inactive: 7.23% |
| COc1cccc(Cc2nc3ccccc3nc2SCC(=O)NCc2ccc(C)cc2)c1 | inactive: -5.21% |
| COc1ccc(CCNC(=O)c2ccc3c(c2)nc2n3CCC(C)C2)cc1OC (configuration not stated) | inactive: -13.4% |
| CCOC(=O)c1noc2nc(C)n(Cc3cccc(C#N)c3)c(=O)c12 | inactive: -15.6% |
| O=C(NCc1ccc(F)cc1)c1ccc2c(c1)nnn2C1CCCC1 | inactive: -7.99% |
| Cc1c(NC(=O)c2cc(-c3ccc(Cl)cc3)on2)c(=O)n(-c2ccccc2)n1C | inactive: -27.9% |
| CCOC(=O)c1[nH]c(C)c(CCC(=O)NCc2ccc(OC)cc2)c1C | inactive: -11% |
| Cc1ccccc1-c1nnc(SCC(=O)N(C)C2CCCCC2)o1 | inactive: 53.2% |
| CCNC(=O)c1ccc(CSc2nc3ccncc3n2Cc2ccc(F)cc2)cc1 | inactive: -17.1% |
| CCN(C(=O)Cn1cnc2onc(-c3ccc(F)cc3)c2c1=O)c1cc(C)ccc1C | inactive: -14.5% |
| CO[C@]12C[C@@H](COC(=O)c3cncc(Br)c3)CN(C)[C@@H]1Cc1cn(C)c3cccc2c13 | inactive: -0.501% |
| CCCCC(=O)O[C@]1(C(=O)CO)[C@@H](C)C[C@H]2[C@@H]3CCC4=CC(=O)C=C[C@]4(C)[C@@]3(F)[C@@H](O)C[C@@]21C | inactive: -2.85% |
| Cc1ccc(NC(=O)N2CCN(c3cc(-c4noc(C)n4)ccc3C)CC2)c(C)c1 | inactive: -15.1% |
| CC(=O)c1ccc(NC(=O)c2nc(-c3ccc(C)cc3)n3c2CCCCC3)cc1 | inactive: -29% |
| COc1ccc(CNc2nc3ccccc3c3nc(-c4ccccc4)nn23)cc1 | inactive: -13.4% |
| Cc1ccc(OCC(=O)Nc2nc(-c3ccc(Br)cc3)ns2)cc1C | inactive: -1.01% |
| Cc1ccccc1OCC(=O)Nc1ccc2nc(SCc3ccccc3)sc2c1 | inactive: -0.275% |
| CC(=O)OCC(=O)[C@@]1(O)CC[C@H]2[C@@H]3CCC4=CC(=O)C=C[C@]4(C)[C@@]3(F)[C@@H](O)C[C@@]21C | inactive: 4.51% |
